Hit rate of the full screen: of about 310,000 compounds, about 14,000 (4.5%) showed an effect of 50% or more. The effect is printed as a negative number. This is one part of the list.
What follows are molecules tested against human ether-à-go-go-related gene (hERG) potassium channel (human, UniProt Q12809) (assay: primary screen, population patch clamp on CHO cells stably expressing hERG).
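Further: peak tail current of the secondary pulse compared with the same well before compound.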

Sequence of human ether-à-go-go-related gene (hERG) potassium channel (Q12809 whole entry, looked up): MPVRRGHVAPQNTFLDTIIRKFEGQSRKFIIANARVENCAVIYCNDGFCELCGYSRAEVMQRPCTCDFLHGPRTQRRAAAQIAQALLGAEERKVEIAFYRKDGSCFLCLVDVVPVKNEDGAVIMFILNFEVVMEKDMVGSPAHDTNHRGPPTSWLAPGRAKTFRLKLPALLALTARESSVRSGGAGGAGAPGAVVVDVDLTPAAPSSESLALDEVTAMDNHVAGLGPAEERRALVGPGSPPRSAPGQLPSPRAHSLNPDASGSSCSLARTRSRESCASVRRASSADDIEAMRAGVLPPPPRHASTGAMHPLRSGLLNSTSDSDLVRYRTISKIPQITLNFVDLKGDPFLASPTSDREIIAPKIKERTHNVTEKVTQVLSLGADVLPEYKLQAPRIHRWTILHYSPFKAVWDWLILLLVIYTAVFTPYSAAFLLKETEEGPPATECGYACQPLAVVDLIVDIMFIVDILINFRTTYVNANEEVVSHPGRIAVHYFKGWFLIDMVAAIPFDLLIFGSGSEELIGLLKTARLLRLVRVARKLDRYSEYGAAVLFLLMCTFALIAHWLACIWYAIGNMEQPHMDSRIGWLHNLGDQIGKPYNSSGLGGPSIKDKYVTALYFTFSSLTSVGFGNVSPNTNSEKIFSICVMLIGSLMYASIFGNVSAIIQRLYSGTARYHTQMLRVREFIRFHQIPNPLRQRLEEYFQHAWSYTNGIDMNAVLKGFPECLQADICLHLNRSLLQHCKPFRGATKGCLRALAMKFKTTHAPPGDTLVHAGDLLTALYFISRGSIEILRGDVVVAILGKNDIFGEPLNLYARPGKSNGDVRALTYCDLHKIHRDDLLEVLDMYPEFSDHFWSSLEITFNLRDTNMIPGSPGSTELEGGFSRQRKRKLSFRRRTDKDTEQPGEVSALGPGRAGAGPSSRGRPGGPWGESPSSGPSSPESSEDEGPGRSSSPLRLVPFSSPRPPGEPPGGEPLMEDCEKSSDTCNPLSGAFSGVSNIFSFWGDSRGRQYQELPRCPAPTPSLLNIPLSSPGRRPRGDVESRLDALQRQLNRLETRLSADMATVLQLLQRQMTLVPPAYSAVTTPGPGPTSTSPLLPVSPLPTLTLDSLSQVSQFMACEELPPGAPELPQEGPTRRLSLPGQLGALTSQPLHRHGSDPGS

| Structure (SMILES) | hERG current change (%, negative = inhibition) at 10uM [%] |
| --- | --- |
| Cc1ccc(N2C(=O)CC(c3ccsc3)C3=C2CC(C)(C)CC3=O)cc1 (stereo not drawn) | 3.75 |
| CC(C)(C)NC(=O)NC(=O)COC(=O)COc1ccc(Cl)cc1Cl | 10.1 |
| Cc1cccc(NC(=S)/N=C(\N)Nc2nc(C)c3ccc(C)cc3n2)c1 | -5.62 |
| CCc1c(C)c(C#N)c2nc3ccccc3n2c1NCc1ccccn1 | -27.2 |
| CCOP(=S)(OCC)C(O)CCCCCn1c(=O)c(F)cn(C2CCCO2)c1=O (stereo not drawn) | -2.13 |
| COc1ccc(C(=O)N(C)c2ccccc2C(=O)NCCc2ccccc2)cc1 | -20.2 |
| COc1ccc(Nc2cccc(Cl)c2)c(C(=O)O)c1 | 8.66 |
| COc1ccc(-n2nc3c(c2NC(=O)C2CC2)CS(=O)(=O)C3)cc1 | -6.08 |
| CCCOc1nnnn1-c1ccccc1 | 23.1 |
| Cc1cc(NC(=O)CCC(=O)N(Cc2ccccc2)C(C(=O)NC2CCCC2)c2ccc(C)o2)no1 (stereo not drawn) | -4.17 |
| CCN1C(=O)CC(C(=O)OC)=C1C | 27.2 |
| CC1(C)NC(=O)N(CCOCCOc2ccccc2)C1=O | 5.83 |
| O=C(Nc1ccncc1)c1sc2ccccc2c1Cl | 12 |
| CCCCOc1ccc(C(=O)NCC(=O)NCC2CCCO2)cc1 (stereo not drawn) | 2.65 |
| O=C(CSc1ccccn1)Nc1ccc(Cl)c([N+](=O)[O-])c1 | -19.6 |
| CCn1nc(C)cc1C(=O)N1CCCC(N2CCN(c3cccc(Cl)c3)CC2)C1 (stereo not drawn) | -35 |
| CCCc1nnc(SCC(=O)N2C(C)CCCC2C)n1CC (stereo not drawn) | 4.47 |
| COc1ccc(NC(=O)CSCc2ccc(C#N)cc2)c(OC)c1 | -14.2 |
| CCOc1ccc(N(C(=O)CNC(=O)c2ccco2)C(C(=O)NC2CCCC2)c2ccco2)cc1 (stereo not drawn) | -0.762 |
| CCC1(c2ccc(F)cc2)NC(=O)N(CC(=O)NCC(=O)Nc2cccc(C)c2C)C1=O (stereo not drawn) | -8.55 |
| CC1(C)CC(N2CCC(=O)NC2=S)CC(C)(C)N1 | 3.04 |
| O=C(O)c1cc(S(=O)(=O)NC2CCCc3ccccc32)ccc1O (stereo not drawn) | 13.5 |

| Structure (SMILES) | hERG current change (%, negative = inhibition) at 10uM [%] |
| --- | --- |
| COc1ccccc1OCC(=O)O/N=C(\N)c1ccccn1 | 12 |
| Cc1oc(-c2ccccc2F)nc1CN1CCC(C(=O)NCCC2=CCCCC2)CC1 | -71.8 |
| O=c1[nH]c2ccccc2n1C1CCN(CCCC(c2ccc(F)cc2)c2ccc(F)cc2)CC1 | -77.6 |
| CCN(CC(=O)Nc1c(F)cccc1F)C(=O)COc1ccc2c(C)cc(=O)oc2c1 | 6.35 |
| COc1ccc(NC(=S)NCCCN2CCOCC2)cc1 | 1.22 |
| COc1cc2nc(N3CCN(C(=O)C4COc5ccccc5O4)CC3)nc(N)c2cc1OC.CS(=O)(=O)O (stereo not drawn) | -38.9 |
| Cc1ccc(S(=O)(=O)NCC2CCC(C(=O)NCCCOC(C)C)CC2)cc1 (stereo not drawn) | -17.2 |
| O=C(Cc1ccccc1Cl)N/N=C/c1cccnc1 | -0.536 |
| Cn1ncc(Br)c1C(=O)Nc1ccc(Cl)cn1 | 5.27 |
| CC(C)(C)NC(=O)CCN(/N=C/c1ccncc1)C1=NS(=O)(=O)c2ccccc21 | -19.1 |
| COc1ccc(NC(=O)CCNC(=O)Cn2cnc3sc4c(c3c2=O)CCCC4)cc1OC | 11.5 |
| Cc1ccc(-c2cc(C(=O)N/N=C/C=C/c3ccccc3)n[nH]2)s1 | -1.52 |
| C=CCNC(=O)CSc1nnc(-c2ccccc2Cl)n1-c1c(C)n(C)n(-c2ccccc2)c1=O | -5.62 |
| COc1ccc(N2CCN(C(=O)CNC(=O)c3cn(-c4ccccc4OC)c(=O)c4ccccc34)CC2)cc1 | -43.9 |
| COc1cc(CN2CCCC(CO)(Cc3cccc(Cl)c3)C2)cc2c1OCO2 (stereo not drawn) | -68.1 |
| C=COc1ccc(N2C(=O)c3ccccc3OC2C)cc1 (stereo not drawn) | 0.982 |
| OC(COc1ccc(CNCCc2ccc(C(F)(F)F)cc2)cc1)CN1CCCCC1 (stereo not drawn) | 14.3 |
| COCCNC(=O)CSc1ccccc1C(=O)O | 19.8 |
| C[N+]1(C)CCCC(OC(=O)C(O)(c2ccccc2)c2ccccc2)C1.[Br-] (stereo not drawn) | -1.3 |
| NC(=O)C1=C[C@@H](c2coc3ccccc3c2=O)C[C@@H](OCc2ccc(CO)cc2)O1 | -31 |
| C/C(=N\Nc1ccccc1)c1c(O)[nH]c(=O)[nH]c1=O | 10.7 |
| CN1C(=O)C(C(=O)Nc2ccccc2F)c2ccccc21 (stereo not drawn) | -1.32 |

| Structure (SMILES) | hERG current change (%, negative = inhibition) at 10uM [%] |
| --- | --- |
| COc1cc(NC(=O)c2cccs2)ccc1NC(=O)Cc1ccccc1 | -7.06 |
| CCCCc1cc(=O)oc2cc(C)cc(OCC(=O)NCC3CCC(C(=O)O)CC3)c12 (stereo not drawn) | -1.21 |
| O=C(COC(=O)c1ccc(O)cc1O)NC1CCS(=O)(=O)C1 (stereo not drawn) | 12.9 |
| COc1ccc(/C=N\NC(=O)c2ccc(-c3ccccc3)cc2)cc1COC(C)=O | -0.748 |
| CCOc1cc(S(=O)(=O)N2CCC(Cc3ccccc3)CC2)c(OCC)cc1-n1cnnn1 | 11.3 |
| CC(C)CCN1CCN(Cc2ccc(C#CCCO)cc2)CC1CCO (stereo not drawn) | -6.37 |
| COc1nc(C)nc2c1sc1nc3c(cc12)COC(C)(C)C3 | 12.5 |
| O=C(OCC(=O)N1CCN(c2ccccc2)CC1)c1ncc(Cl)c(Cl)c1Cl | -3.66 |
| Cc1ccccc1N1C(=O)CC1(C#N)c1ccc(OCc2ccccc2)cc1 (stereo not drawn) | 17.6 |
| O=C(Nc1cccc(Cl)c1)Nc1ccnc(-c2cccnc2)n1 | -3.2 |
| O=C(c1ccc(F)cc1)N(NC(=O)C(O)(c1ccccc1)c1ccccc1)c1ccccc1 | -6.98 |
| Cc1ccc(-c2csc(N3CCN(c4ccc5nc(-c6ccncc6)n(CCN6CCCCC6)c5c4)CC3)n2)cc1 | 23.2 |
| Cc1cc2nc(CSc3ccccc3)cc(=O)n2[nH]1 | 11.6 |
| CC1CCN(Cc2c(O)ccc3c(=O)c(-c4nc5ccccc5s4)c(N)oc23)CC1 | -48.5 |
| CCc1cc2c(C)ccc(C)c2nc1SCC(=O)Nc1c(C)[nH]c(=O)[nH]c1=O | 2.43 |
| COc1ccccc1CN1CCCC(N2CCN(c3ccc(F)cc3)CC2)C1 (stereo not drawn) | -56.2 |
| Cc1cccc2cc(CN(Cc3ccc4c(c3)OCO4)Cc3nnnn3C3CCCC3)c(=O)[nH]c12 | -20.9 |
| Cc1cc(C(=O)N/N=C2\CC(=O)c3ccccc32)c(C)n1-c1ccccc1 | 17.3 |
| CC(=O)Nc1ccc(N/C=C/C(=O)c2ccco2)cc1 | 1.94 |
| CC(C)(C)n1ncc2c(=O)n(Cc3ccc(Cl)c(Cl)c3)cnc21 | 0.627 |
| CC(=O)c1sc(NC(=O)COc2ccc(C)c(C)c2)nc1C | 13.6 |
| O=C(CCCC1=NS(=O)(=O)c2ccccc2N1)Nc1ccccc1 | -2.06 |

| Structure (SMILES) | hERG current change (%, negative = inhibition) at 10uM [%] |
| --- | --- |
| Cc1ccccc1-c1noc(CCC(=O)NC2CCCCC2)n1 | -8.36 |
| COc1ccc(/C=N/NC(=O)c2ccc(NC(=O)c3cccc([N+](=O)[O-])c3)cc2)c(C(=O)O)c1OC | 7.45 |
| O=C(COC(=O)c1ccc([N+](=O)[O-])o1)Nc1cccc(S(=O)(=O)N2CCCCC2)c1 | -56.6 |
| O=C(NC1CCCCC1)Sc1ccc(Cl)cc1 | 11.3 |
| CC1CCc2cc(F)cc3c(O)c(C(=O)NCC4CCCO4)c(=O)n1c23 (stereo not drawn) | -13.4 |
| CCN1CCN(C(=S)Nc2ccc(Cl)c(Cl)c2)CC1 | -24.5 |
| CCOC(=O)c1c(/N=C/N(C)C)sc(/C=N/Nc2ccccc2)c1-c1ccccc1 | 2.35 |
| COC(=O)CSc1nnc2n(C3CCCCC3)c(=O)c3c4c(sc3n12)CCCC4 | -18.5 |
| COc1ccc(C(=O)Nc2ccc3nc(C)sc3c2)cc1OC | 8.62 |
| O=S1(=O)CCN2C(Cc3ccc(SC(F)F)cc3)=CSC2=N1 | -20.2 |
| O=C(c1cccc(NS(=O)(=O)c2ccccc2)c1)N1CCN(c2ccccc2)CC1 | -9.01 |
| Cc1ccc(C(=O)N/C(=C\c2ccccc2)C(=O)NCCCn2ccnc2)cc1 | -84.8 |
| CN(C1CCCCC1)S(=O)(=O)c1cn(C)c(=O)n(C)c1=O | 4.74 |
| C=CCn1c(Cc2csc(N)n2)nnc1SCC(=O)Nc1ccc(C(=O)OCC)cc1 | -15.1 |
| CC(/C=C/c1ccccc1F)=N\NC(=O)c1ccccc1 | -15.3 |
| O=C1CC(c2ccc(O)cc2)Oc2cc(O)ccc21 (stereo not drawn) | 9.31 |
| COc1ccc(-c2nnn(CC(=O)c3c[nH]c4ccccc34)n2)cc1OC | 5.53 |
| COc1ccc(NC(=S)NC(=O)C2CCCCC2)cc1 | 0.986 |
| O=C(Nc1cc(Br)ccc1O)c1cc(-c2ccc3c(c2)OCO3)on1 | -4.2 |
| Oc1ccc(/C=N/n2c3ccccc3c3ccccc32)cc1 | -8.87 |
| CCCCOC(=O)/C=C\C(=O)NC(N)=O | 11.6 |
